Data from the supplement of paper PMC3334620.
Over roughly 33,000 sequences, “E-score (-0.5 to 0.5)” has its median near -0.041; the highest 2% begin near 0.37. The list shows a part of the results.

The sequences below were run against T1, Ecm22 (UniProt Q05958) (assay: PBM E-score (8-mer binding enrichment) (E-score (-0.5 to 0.5)); higher = stronger / more preferred TF binding; most listed sequences are background and not binding sites). Settings: protein concentration: 200 nM; construct: GST-full length.
T1 sequence: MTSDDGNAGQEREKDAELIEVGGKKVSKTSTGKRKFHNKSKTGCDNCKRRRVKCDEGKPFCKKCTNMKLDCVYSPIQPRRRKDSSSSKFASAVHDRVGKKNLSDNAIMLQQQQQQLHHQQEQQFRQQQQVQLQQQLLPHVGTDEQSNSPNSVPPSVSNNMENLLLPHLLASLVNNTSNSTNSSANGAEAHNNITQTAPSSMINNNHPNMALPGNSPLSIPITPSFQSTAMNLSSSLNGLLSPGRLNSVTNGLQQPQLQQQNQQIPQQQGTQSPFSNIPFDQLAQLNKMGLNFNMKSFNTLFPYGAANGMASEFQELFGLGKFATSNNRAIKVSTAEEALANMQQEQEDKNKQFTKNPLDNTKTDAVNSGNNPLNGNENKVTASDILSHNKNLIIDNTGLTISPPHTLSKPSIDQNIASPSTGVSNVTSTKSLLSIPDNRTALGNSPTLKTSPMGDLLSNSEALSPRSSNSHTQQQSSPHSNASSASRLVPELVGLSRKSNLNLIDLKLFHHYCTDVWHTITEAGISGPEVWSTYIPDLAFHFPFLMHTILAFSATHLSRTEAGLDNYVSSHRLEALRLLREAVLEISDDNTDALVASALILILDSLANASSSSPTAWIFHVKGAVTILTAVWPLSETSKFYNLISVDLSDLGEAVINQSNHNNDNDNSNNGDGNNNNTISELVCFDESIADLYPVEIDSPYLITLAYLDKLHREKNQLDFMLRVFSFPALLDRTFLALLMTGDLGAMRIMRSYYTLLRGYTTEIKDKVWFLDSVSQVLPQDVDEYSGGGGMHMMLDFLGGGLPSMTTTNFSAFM
Outline: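 Bound GST-tagged yeast transcription factors, applied at about 100-200 nM to double-stranded universal all-10-mer Agilent arrays, were detected with fluorescent anti-GST. Scans were normalised with masliner. A modified Wilcoxon-Mann-Whitney statistic, the E-score, was assigned to each ungapped eight-base word pooled with its reverse complement by the Universal PBM Analysis Suite.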

Sequence	PBM E-score
CAGCGTGG	-0.04
GCTGTTAC	-0.0482
AAGTGTGC	-0.111
CACTACCA	0.0485
AACCAACT	-0.0109
GTAGAGAC	-0.185
CATGGAGG	-0.215
GCCTGGTA	-0.0018
ACCACACG	0.135
CTAGCGCC	-0.233
GGTCTAAC	-0.0964
AGTTTCTA	-0.0187
GCCGAGAA	0.0598
CTTTCAGC	-0.112
AGTGCGCC	-0.124
TCGATTAA	0.19
AACCCCTT	-0.053
CGGCTATA	0.073
CTCCAAAA	-0.226
CTTACCTA	-0.117
GACTCGAC	0.0219
CAAGCACC	-0.192
ATAGAACG	0.303
TACGCAAA	0.163
ATCATCGA	-0.0348

Sequence	PBM E-score
AGTCGAGA	0.0366
TAGTGGCA	-0.179
AAAGGCAG	-0.157
CAACGATC	0.175
TCAACGGA	-0.0109
AGTAGTAA	0.0772
CGACGGGA	0.227
AGGGACCG	-0.0157
AGATATCG	0.0487
CTCTTGAA	-0.239
CACTGTGA	-0.0536
AATTAGAC	-0.163
ATGACTAG	-0.137
ATCCGGCA	-0.101
ATTGGTCA	-0.103
AGGAGCGA	0.328
GCCCTCTA	-0.301
AGCATAAT	0.0723
CAGTTACA	-0.0813
AAAACATG	0.0538
ACGCTCAG	-0.112
GCAGGGCA	-0.18
CTCTCGAC	-0.151
AGCTGATC	0.00123
GCGATTCA	0.0973

Sequence	PBM E-score
CGGTACAG	0.0427
CCGATCTC	-0.0283
CGGTTAAG	0.218
AAGGACCT	-0.191
AGTGAATC	-0.105
GCAAGAGC	-0.188
CACATCCG	0.0343
GAATCCCC	-0.196
GCCAGTCA	-0.0828
ACTCAGTC	-0.147
CGATGACG	0.0786
ATACAACC	0.0189
ACCGATGA	0.057
ACTTGAAA	-0.0633
CCCATTCA	-0.11
CACGTAGA	-0.0914
ATGGCCGC	-0.146
AGGTTGTG	-0.284
CGTTTGGC	0.394
GAACCCCA	-0.161
CGACTAAC	0.0876
GCATACTA	-0.0263
CCTACCAG	-0.147
CCTAGCTA	-0.314
CAGAAAGA	-0.0327

Sequence	PBM E-score
CACATTTA	-0.276
CCGGGTCA	-0.0203
TGAAATCA	-0.0973
GAGTTTGA	-0.0769
ACCGTTAA	0.246
ACGGAAAC	0.275
CATATACG	0.445
ACCTGGCC	-0.122
CGAGTGCC	0.00958
ATTTATCG	0.164
CCTGGGCG	-0.152
GGAGCTCC	-0.395
AACAAGGA	0.00298
GGTCGGCA	0.0143
ACATCTTC	-0.038
AAGAGGCT	-0.268
TCCCTAGA	-0.176
GATCGCGC	0.169
CGTTCATA	0.386
CAACCTGA	-0.064
CATGCCGC	0.0956
CACGATAA	0.00212
AGGTAAAC	0.233
AGCTCTAT	-0.113
CGTGCAAG	0.0627

Sequence	PBM E-score
CATATCCG	0.14
GAATCCAC	-0.00795
CAACGTGC	0.0429
AGCACCAT	-0.122
CTCCGTCC	-0.139
ATATAGCG	0.0942
GACAGCGA	0.0982
CTTAATTC	-0.0174
GGATCACC	-0.117
GTACGACA	0.48
ATCACCCA	-0.0985
GGTTATTA	0.118
GGAATCCC	-0.15
ACCTATTG	-0.0272
GCGGCTCC	-0.189
AGCACCCG	0.0738
CCGTGGCA	-0.136
CGCTTAGC	0.27
ACGAATAT	0.285
GGGGCTTA	-0.3
AGGGACAC	-0.0536
CAGTCTGC	-0.111
ACTTTAGA	-0.118
AGCGACGC	0.183
AAACACCG	0.14

Sequence	PBM E-score
ACGATAGC	0.311
ACTTCACG	-0.0496
ACGCATTC	-0.0053
CACAGATA	-0.15
AATTCCGC	0.0231
AAAAGCAT	0.0251
ATGACCAC	-0.145
GTGCGGAA	0.0503
GATTCAAC	0.0303
GGACCATA	0.0222
GAGTTCGC	0.105
AGTGTATA	-0.0259
CAATCTAA	0.0234
GCTAGTAA	-0.0786
ACTCCAGG	-0.118
AGGTTCAC	0.0703
AGCGAGCT	0.309
CGCGTGAG	0.131
AAACTACT	-0.105
GACCGGTA	-0.173
GAGGAGCC	-0.0571
CCTAGCCC	-0.222
AAAGATGT	-0.0546
CGTTGATC	0.156
CACAGGCA	-0.0554

Sequence	PBM E-score
AACGGAGA	0.18
ATATCGCG	0.302
CATTCACC	0.0401
CGTGCGTC	0.151
GGCAGTCA	-0.0846
CAAGGCTG	-0.201
CCTAAAAG	-0.201
CAGGAAAG	-0.218
GGTAACTA	0.0246
CGGCCGGC	-0.0878
AACGTACA	0.204
ACTGTGGC	-0.169
ACGCGTGA	0.144
AGCTGTCA	-0.0437
AACGGCTC	0.261
CGCCTTAG	-0.19
CTCCACTC	-0.162
CGTTCGGA	0.274
CACAGGGA	-0.153
CAGAAACC	-0.0626
AACGCCCA	-0.0846
CAGCCAAA	-0.0517
CGCTTTCC	-0.0734
AAGTGGTG	-0.0137
CCGAGTCG	0.163

Sequence	PBM E-score
AACCTGCG	-0.0141
TAACGGCA	0.0107
ACTCATGC	-0.0706
ACTCTTAA	-0.106
ACACTCAC	-0.0142
GACTGGCC	-0.0693
CCACGTGC	-0.0322
AAGACTAC	-0.102
GCATCAAA	-0.162
ATAGACTA	-0.0832
CCCACTAC	-0.161
AAGCAAGT	-0.117
CATCTACA	-0.0749
ATCCAAGC	-0.231
AACACGGG	0.186
GGGTCATA	-0.102
CCGTAAGC	0.142
ACAAATCC	-0.159
GTGGTCGA	-0.0123
AGACGCAC	-0.0323
AGATCCTA	-0.0686
GGCGGCTA	-0.214
CCTCGCCA	-0.0542
TTCGAGAA	0.149
ACCCACGC	-0.108

Sequence	PBM E-score
CACCTTGA	-0.181
CCACGTGG	-0.0279
GCCAGTAC	-0.094
CTAGGGGC	-0.368
CTTAAACA	-0.0983
CTAGACTA	-0.134
GACTGGAC	-0.193
ACTACTGG	-0.38
ATCGAGGG	-0.0104
CTGTCAGC	-0.203
CGCAACCC	-0.00304
CGAATGCC	0.00653
CCTCATCG	0.125
ATGCCGCG	0.144
CTTTAGTC	-0.289
GAGGTAGA	-0.0207
ATCAGGCG	-0.158
AACCCTTG	-0.0616
ATAACCGC	0.0506
AATGCACA	0.0613
CATCGGAA	0.181
AGCTAATA	0.0246
ACAGGTCT	0.00866
CATAAACA	-0.0236
GTGGAAAC	-0.14

Sequence	PBM E-score
CTAGGTTA	-0.181
GAGTACAC	0.13
CGTTTAGC	0.464
ATTAGCGG	-0.13
AAATTGAG	-0.152
CCGAGCCC	0.0573
CGCCGGTC	-0.0658
ATAGTTAA	0.0332
GATTGTGA	-0.0615
GTTGAGCA	-0.0718
GAAAGGAC	0.0471
GACAGCTC	-0.036
TACTCTCA	-0.0803
CGAAGCGC	0.0347
GACAGGCC	-0.206
GCGGCAGA	-0.171
CGAAAGGC	0.0855
AGTTTGCC	-0.117
AAAATTGA	-0.0823
CCCTACCA	-0.0939
CTACTGTA	0.0808
TGGTCTAA	-0.187
AGTTCGCA	0.221
ATCGCGAC	0.151
AACCGCAT	0.0581

Sequence	PBM E-score
CCCAACGG	-0.207
AGAGGACA	-0.272
ATCTAACC	0.0109
GTGTCATA	-0.00652
CGAAGGCG	0.124
AATTGGCT	-0.133
ACTAAACT	-0.0221
CGTTTAAC	0.465
CGAGCTAG	0.138
ATGACAAA	-0.159
CCTGAGAG	-0.236
AAGCCACC	-0.194
ACCCGTTC	0.348
TATGTGCA	-0.0772
CGCTGACG	-0.21
TATAAACA	0.112
GTCTGCCA	-0.136
AATCTGCC	-0.177
GTCTCCGA	0.0202
ACTGGCCA	-0.206
AAATTAAA	0.0157
ACGAAACA	0.335
GCATCAGA	-0.18
AACGTCTT	0.054
GTACCCTA	0.128

Sequence	PBM E-score
AATTCTCT	-0.0437
GTCACAAA	0.0841
CCCCGGAG	-0.084
GCCGCTCC	0.0214
ACACCTGT	-0.0395
CAGTTTGA	-0.217
CGCTGCAA	0.0581
AAGGCGCT	-0.145
CCGTTCTC	0.0947
CGCAGCCG	-0.0691
AACTGCTG	-0.215
AGAGGGTA	-0.0925
AAATAGGA	-0.091
GATAATTA	0.0574
CACTGACG	-0.0105
CGCTCAAA	0.0592
CGTTAGCC	-0.139
TAAGCGGA	0.096
ACGCCACT	-0.0596
CAGAACTA	-0.0778
CCCAACCC	-0.155
AGTGTACG	0.389
AGCTACCG	-0.174
ATCCAATA	0.00338
AATTAAGT	-0.0891

Sequence	PBM E-score
CAGATCTG	-0.286
CGACAAAC	0.191
AATTCAGA	-0.0476
CGTCGTAC	0.486
ACTGGAGC	-0.223
GGCACGAA	0.0219
GGAATTCA	-0.126
ACAAAACT	-0.078
CAAAAGCG	0.0125
TGACCTCA	-0.255
CACGGGGG	-0.0702
CTTGGCAA	-0.142
GGAGTACA	-0.0403
CAATGCTG	-0.148
GTTGATCA	0.0958
CCAAAAGG	-0.364
GAATAGAC	-0.124
ACTGATGA	-0.0167
GAAACCGA	0.105
GTGGGTGA	-0.137
ACATAATA	0.204
CCTCAATC	-0.077
AATCTAGG	-0.0525
ACAGTGTG	-0.0799
AGCGTGTA	0.133

Sequence	PBM E-score
CTGCAAGC	-0.219
CCAGCAGA	-0.264
CATCGGAG	-0.214
CTGATCAA	-0.154
GCAAAGAC	-0.0631
AACAGACG	0.145
AAACTTCG	0.186
GCATTCAC	0.0443
ACATCGGC	-0.033
AAGAATAA	-0.159
ACAATAGT	-0.124
CTACATGC	0.161
AAGGAGCT	-0.152
ACTTGGAA	-0.0639
ACGGCAAG	0.0243
CCAGACGA	0.145
ATCTGGCA	0.0817
AATGCCAC	-0.183
AACTCAAG	-0.248
